According to PubChem BioAssay AID1508624 (National Center for Advancing Translational Sciences (NCATS), 2021):
About 120 (0.25%) of roughly 48,000 compounds were called active. Another 4% or so got no clear call; they are omitted. Calls follow the shape of the dose curve; as a rule, active = well fitted activation curve with a large enough effect; inconclusive = small, poorly fitted or top-dose-only effect, or another doubt; inactive = no such curve, though single readings can be large or run the other way. This is one part of the list.

Test: Primary qHTS for Identification of Small Molecule Activators of Huntingtin-Antisense Promoter Activity; also: nearly all actives have a fitted effect of over 55% in size
Details: HEK293 HTT-AS promoter firefly luciferase reporter (activity 0% = vehicle and -100% = no light), 24 h; series mostly up to 57.5 µM; activity change, positive = activation: at the top concentration
How it was run: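 Firefly luciferase readout (Dual-Glo, 10 min RT) after 24 h, 37 °C compound exposure (final up to 57.5 uM) of HEK293 reporter cells cultured 24 h beforehand; PTC124 at 50 uM final as control inhibitor; activity scaled vehicle 0%, zero RLU -100%.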

Activity change, positive = activation, inactive:
CCc1ccc(S(=O)(=O)c2nnn3c2nc(Nc2ccc(F)cc2)c2cc(Cl)ccc23)cc1 1.76%
O=C(O)c1cccc(Nc2ncnc3scc(-c4ccccc4)c23)c1 -35.8%
Nc1ccc(S(=O)(=O)Nc2ncccn2)cc1 4.45%
Cc1ccccc1C(=O)Oc1c(Sc2ccccc2)c(C)nn1C(C)(C)C 6.46%
Cc1ccc(C(=O)Nc2nnc(S(=O)(=O)N3CCc4ccccc43)s2)cc1 -11.8%
CCn1nc(C)c2c(-c3ccccc3)cc(=O)n(C(C)C(=O)Nc3ccc(OC)c(OC)c3)c21 (stereo unspecified) -21.2%
COc1ccc(C2C=C(c3ccccc3)Nc3nc(NC(C)=O)nn32)cc1 (stereo unspecified) -19%
CCOC(=O)c1ccccc1NC(=O)CN(c1ccccc1)S(=O)(=O)c1ccc(OCC)cc1 -16.7%
CO[C@@]1(NC(=O)C(C(=O)O)c2ccc(O)cc2)C(=O)N2C(C(=O)O)=C(CSc3nnnn3C)CO[C@@H]21 (stereo partly specified) 7.06%
Cc1cccc(NC(=O)Nc2cccs2)c1C 9.31%
CCCCCCc1c(C)c2c(cc(C)c3c(C)coc32)oc1=O -2.69%
Cc1ccc(C)c(NC(=O)Cn2ncc3c(C)n(Cc4ccc(F)cc4)c(C)c3c2=O)c1 -10.8%
CC1=C(c2ccc(C)c(C)c2)S(=O)(=O)N(Cc2ccc(C(=O)NCc3ccccc3F)cc2)C1=O -29.8%
N#C/C(=C\c1ccc(O)cc1)C(=O)NCC1CCCO1 (stereo unspecified) 19.1%
Cc1cc(C)cc(NC(=O)Cn2nnc(-c3ccccc3F)n2)c1 -19.3%
O=C(CCc1cn(Cc2ccc(F)cc2)c2ccccc12)NC1CCCCC1 -25.2%
COc1ccc(-c2cc(C(F)(F)F)n3nc(C)c(-c4ccccc4)c3n2)cc1OC -8.77%
CCOC(=O)N1CCc2c(sc3c2c(=O)n(-c2ccc(CC)cc2)c(=O)n3Cc2cccc(Cl)c2)C1 -5.89%
Cc1ccc(C)c(N2CCN(C(=O)C3CCC(CNS(=O)(=O)c4cccs4)CC3)CC2)c1 (stereo unspecified) -39.9%
CCC1CN(C(=O)N2CCC(C(=O)NCCc3ccc(OC)c(OC)c3)CC2)c2ccccc2O1 (stereo unspecified) -18.3%
Cc1ccc(CNC(=O)CSc2c(C)cnc3c2c(=O)n(C)c(=O)n3C)cc1 9.12%
CCn1cc(C(=O)OCC(=O)Nc2cc(Cl)ccc2C)c(=O)c2ccc(C)nc21 -4.47%
Cc1ccc(NC(=O)C2CCN(S(=O)(=O)c3cccc4nsnc34)CC2)cc1 -24.6%
CCCCOc1ccc(C2C(=O)N(C3CCCCC3)CC(=O)N2C2CCCCC2)cc1 (stereo unspecified) 0.0613%
Cc1ccc(NC(=O)CN2C(=O)C(c3ccc(F)cc3)=NC23CCCCCC3)c(C)c1 -27.4%
Cc1ccc(C)c(N2CCN(C(=O)c3cc4cc5ccc(C)cc5nc4o3)CC2)c1 0.69%
